Assay results published in the supplement of paper PMC10126150.
Sequences with one replicate were seen in a single cluster, so their values are uncertain.

What follows are sequences tested on ATP (assay: switch fluorescence ratio, 500 uM ATP over buffer (Cy3 cluster intensity, sum of 5 cycles each) (fold (ratio)); higher = stronger signal-on switching upon ATP binding; sequences stand for … in TCGTCGGCAGCGTCAGATGTGTATAAGAGACAGTTTTTTTTTTTTTTTTTTTTTTTTT…TC). Conditions: aptamer strand: ATP DNA aptamer (quencher-CACCTGGGGGAGTATTGCGGAGGAAGG + anchor), 100 nM annealed; ATP concentration: 500 uM; one replicate.
Outline: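 Exposure to 500 uM ATP lasted 15 min at 22 °C before imaging, and a selection-buffer image was taken beforehand, for Cy3-labelled switching-strand clusters on a modified Illumina MiSeq flow-cell annealed to 100 nM quencher-labelled ATP aptamer. Five buffer/ATP cycles were run with NaOH stripping and re-annealing between them. The fluorescence ratio per cluster is summed target-cycle over summed buffer-cycle Cy3 intensity, averaged per switch-domain sequence. Clusters outside 100-1000 RFU were excluded.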

Sequence	switch fluorescence ratio
CCATTAGGTT	1.03
CCATTAGTGC	1.02
CCATTCCCCA	1.08
CCATTCCCCC	1.14
CCATTCTGGT	0.967
CCATTGAGTA	0.966
CCATTGGACC	1.01
CCATTTGTAT	1.02
CCCAACACTT	1.14
CCCAACTATT	0.994
CCCAAGGGCT	1.04
CCCAAGTATA	1.04
CCCAATATCG	1.38
CCCAATCCAA	1.07
CCCACATGGG	1.14
CCCACCGGCC	1.17
CCCACGAGGT	1.41
CCCACGGGGC	1.16
CCCACGGGGT	1.19
CCCACGGGTA	1.68
CCCACTCCTC	1.17
CCCAGAGAAT	0.985
CCCAGAGCAC	2.66
CCCAGCGCTG	0.992
CCCAGCTGCC	1.64

Sequence	switch fluorescence ratio
CCCAGGCTTG	1.09
CCCAGGGTGA	3.13
CCCATATACG	1.76
CCCATATGGT	1.01
CCCATGATGC	1.33
CCCATTTTAG	1.02
CCCCACCGAT	1.11
CCCCACCGGA	0.979
CCCCAGCGG	1.73
CCCCCCTCGT	1.12
CCCCCGACAT	3.88
CCCCCGATGA	1.52
CCCCCGCATT	3.01
CCCCCGGAAG	1.96
CCCCCTGTCC	1.55
CCCCGGACGG	1.03
CCCCGGGGGA	1.05
CCCCGGTACA	1.36
CCCCGTGCGT	1.3
CCCCTATCTA	1.02
CCCCTGGGTG	1.23
CCCCTGTGGC	1.17
CCCCTTATCG	1.02
CCCGAATTAA	1.12
CCCGACAAAT	1.2

Sequence	switch fluorescence ratio
CCCGACCTGC	1.37
CCCGATCCGT	1.08
CCCGGCCTTC	1.05
CCCGGGACTT	1.01
CCCGGGATTT	1.01
CCCGGGGACG	0.994
CCCGGTGAGT	1.18
CCCGGTTAGT	0.983
CCCGTTGCAC	1.41
CCCTAAACTT	1.02
CCCTAAAGGG	1.29
CCCTAGCCGC	1.6
CCCTAGTGCA	1.18
CCCTCATGCC	1.08
CCCTGCCGGT	1.04
CCCTGGCTGG	0.971
CCCTGTAGAA	1
CCCTGTGGTT	3.94
CCCTTGATCA	1.01
CCCTTGTGTA	0.982
CCCTTTA	1.01
CCCTTTACAA	1.05
CCGAAAATCC	1.35
CCGAACCCTG	1.18
CCGAACTAAC	2.69

Sequence	switch fluorescence ratio
CCGACAAGTG	1.31
CCGACATCTA	2.38
CCGACCGTGG	1.12
CCGAGGTAAG	2.46
CCGAGTTCGC	1.19
CCGATACAGT	2.03
CCGATCTAGC	1.96
CCGATGAATC	5.03
CCGATGGCTG	1.92
CCGATTAGTT	1.09
CCGATTGGTG	1.16
CCGCACCTGT	1.78
CCGCATAAG	3.27
CCGCATTTTA	3.4
CCGCCAGTAG	4.36
CCGCCGGTTT	1.24
CCGCCGTCAT	1.47
CCGCGCGGGG	1.01
CCGCGGCGG	1.1
CCGCTGCTTC	4.51
CCGCTGTAG	1.32
CCGGAATCGA	1.22
CCGGACGCCC	3.47
CCGGACTTAG	1.06
CCGGATGTAC	2.98

Sequence	switch fluorescence ratio
CCGGCAACTA	2.93
CCGGCACGGG	1
CCGGCAGGCA	1.04
CCGGCATGTT	1.12
CCGGCGAAAA	1.12
CCGGCGGGAA	2.14
CCGGCGTCAT	1.83
CCGGCTATAT	2.72
CCGGCTGGAG	1.03
CCGGCTTGTG	1.03
CCGGGAATCC	1.46
CCGGGATTAG	1.32
CCGGGCTAAG	1.22
CCGGGCTCGC	1.12
CCGGGCTTAT	1.5
CCGGGGAAAT	1.1
CCGGGGACAA	3.69
CCGGGGAGAT	1.01
CCGGGTCGCC	1.01
CCGGGTTAAT	1.13
CCGGTACCTA	1.1
CCGGTACGGT	1.04
CCGGTACTAA	1.19
CCGGTCACAC	1.7
CCGGTCCTGA	1.02

Sequence	switch fluorescence ratio
CCGGTCTTCA	1.02
CCGGTTCACC	1.02
CCGGTTCTCG	1.04
CCGGTTGGCA	1.87
CCGGTTTTGG	0.968
CCGTAAGGGG	1.01
CCGTAATAAG	4.85
CCGTACTAGT	1.06
CCGTACTGGG	1.07
CCGTAGTAAG	3.89
CCGTCACATT	3.49
CCGTCAGATT	1.06
CCGTCCTCGC	1.85
CCGTCGGTAT	1.33
CCGTGAGTA	1.12
CCGTGCATAG	2.45
CCGTGCCGCG	1.09
CCGTGGACCC	1.24
CCGTGGAGGG	0.995
CCGTGGCGAG	1.26
CCGTGGCGTA	1.06
CCGTGTTATC	1.29
CCGTTAACTG	1.04
CCGTTGAGAA	1.06
CCGTTGCGAG	1.19

Sequence	switch fluorescence ratio
CCGTTGGGCG	1.01
CCGTTGTTTT	1.05
CCGTTTCTGT	1.03
CCTAAAAAAT	1.04
CCTAAACCTA	1.05
CCTAACGTGA	2.32
CCTAATCCTC	1.1
CCTAATGTGG	1.02
CCTACCCCGT	1.01
CCTACCCGGG	1.06
CCTACCTCCT	1.77
CCTACGTCAG	2.58
CCTAGCTATT	1.43
CCTAGCTTGA	1.05
CCTAGGAGGG	1.04
CCTAGGTGTT	1.99
CCTAGGTTAT	1.01
CCTAGTTTTA	1.06
CCTATAGTT	1.07
CCTATCCAGG	1.59
CCTATCTCGC	1.22
CCTATGACTG	0.981
CCTATGTGTC	1.06
CCTATTAGAC	1.17
CCTATTAGGG	0.989

Sequence	switch fluorescence ratio
CCTCAATGTG	1.24
CCTCACAGCT	2.27
CCTCACCATA	3.13
CCTCACCGTC	1.36
CCTCAGGAGC	1.44
CCTCAGGGTG	4.14
CCTCAGGTTC	1.95
CCTCATCACG	1.36
CCTCATGACT	1.25
CCTCATGTGT	1.25
CCTCATTTAA	1.09
CCTCCACCGG	2.63
CCTCCTAAAG	2.87
CCTCGGATTG	1.12
CCTCGGATTT	1.08
CCTCTACGCA	3.12
CCTCTAGTTT	1.1
CCTCTATGA	1.35
CCTCTATTTC	1.68
CCTCTCTCGT	1.05
CCTCTGAGCA	2.63
CCTCTGGGTG	4.64
CCTCTGTTT	1.63
CCTCTTCCAT	1.23
CCTGAAATTT	0.986
